Reference: PubChem BioAssay AID588591 (National Center for Advancing Translational Sciences (NCATS), 2011)
Several values for one entry are separate records, joined by “and”; a condition that tells them apart may be missing. Equal values may be shown once. The whole screen tested about 390,000 compounds, of which about 4,700 (1.2%) were called active. The inconclusive results got no clear call from the source; some entries with a clear call stand among them for comparison. Calls come from the whole dose curve; as a rule, active = well fitted inhibition curve with a large enough effect; inconclusive = small, poorly fitted or top-dose-only effect, or another doubt; inactive = no such curve, though single readings can be large or run the other way. Potencies of inconclusive entries are doubtful fits and often do not repeat.

The molecules below were run against DNA polymerase eta (Homo sapiens) (UniProt Q9Y253) (assay: qHTS for Inhibitors of Polymerase Eta). Settings: recombinant Pol eta, fluorescent DNA replication assay; series mostly up to 114 µM; activity change, negative = inhibition: at the top concentration.
Method in brief: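 Pol eta at 10 nM preincubated with compounds 15 min at room temperature; reaction started with fluorescent substrate (50 nM final) and read kinetically at 0 and 10 min.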
% is set by controls: 0 for no effect and ±100 for the full control effect; potency is the fitted concentration of half-maximal effect; tags give direction and shape of the fitted curve.

Sequence of UniProt Q9Y253 (Q9Y253 whole entry, looked up): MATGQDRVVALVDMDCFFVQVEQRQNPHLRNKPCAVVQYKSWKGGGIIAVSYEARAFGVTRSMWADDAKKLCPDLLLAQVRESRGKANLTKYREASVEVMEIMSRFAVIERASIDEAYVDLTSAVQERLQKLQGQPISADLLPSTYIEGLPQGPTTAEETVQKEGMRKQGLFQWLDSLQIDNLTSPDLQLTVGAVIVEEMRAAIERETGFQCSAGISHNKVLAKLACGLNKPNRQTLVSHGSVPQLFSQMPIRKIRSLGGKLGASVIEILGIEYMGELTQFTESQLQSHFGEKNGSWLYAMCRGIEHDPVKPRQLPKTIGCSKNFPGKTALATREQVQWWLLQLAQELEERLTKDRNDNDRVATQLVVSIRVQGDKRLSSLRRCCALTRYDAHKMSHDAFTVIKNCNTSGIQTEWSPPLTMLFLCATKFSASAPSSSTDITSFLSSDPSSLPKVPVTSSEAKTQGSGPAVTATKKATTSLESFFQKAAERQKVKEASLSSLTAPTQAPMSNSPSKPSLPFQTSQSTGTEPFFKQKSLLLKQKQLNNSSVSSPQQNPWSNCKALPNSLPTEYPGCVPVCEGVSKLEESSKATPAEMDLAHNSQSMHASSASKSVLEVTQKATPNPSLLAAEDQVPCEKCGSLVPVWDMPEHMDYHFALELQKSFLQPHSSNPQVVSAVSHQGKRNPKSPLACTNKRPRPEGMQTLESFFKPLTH

Structure (SMILES)	Potency	activity change, negative = inhibition
N#Cc1c(-c2ccco2)nc(SCc2ccc(F)cc2)[nH]c1=O	inconclusive: 89.1 µM [inhibitor, partial curve, poor fit]	–
COc1ccc(NC(=O)C(NC(=O)C2CCC(C)CC2)C(C)C)cc1 (stereo not drawn)	–	inactive: -11.5%
O=C(Nc1cccnc1)c1ccc([N+](=O)[O-])s1	inconclusive: 0.891 µM [inhibitor, partial curve, poor fit]	–
CCOC(=O)COc1cc(Br)c(/C=N/Nc2ccccc2)cc1OC	inconclusive: 14.1 µM [inhibitor, full curve, poor fit]	–
CCN(CC)CCN1C(=O)C(O)=C(C(=O)c2cc3ccccc3o2)C1c1cccnc1 (stereo not drawn)	inconclusive: 20 µM [inhibitor, partial curve, poor fit]	–
Oc1ccc(/C=N/Nc2ncnc3c2ncn3Cc2ccccc2)cc1O	active: 3.16 µM	–
Cc1ccc(N2C(=O)CS(=O)(=O)C23C(=O)N(Cc2ccccc2C)c2ccccc23)cc1Cl (stereo not drawn)	–	inactive: -1.67%
CC(=O)c1c(C)[nH]c(C(=O)OC(C)C(=O)Nc2cc(S(=O)(=O)N3CCCCC3)ccc2Cl)c1C (stereo not drawn)	inconclusive: 50.1 µM [inhibitor, partial curve]	–
Cc1cc(=O)oc2cc(OCC(=O)Nc3cccnc3)ccc12	–	inactive: -13.2%
CCc1ccc(CNC(=O)C2CCN(c3nnc(C)c4c(C)n(-c5ccc(C)cc5)nc34)CC2)cc1	inconclusive: 100 µM [inhibitor, single point] and inconclusive: 35.5 µM [inhibitor, partial curve, poor fit]	–
O=C(N/N=C/c1ccc(-c2cccc([N+](=O)[O-])c2)o1)[C@H]1C[C@@H]1c1ccccc1	inconclusive: 56.2 µM [inhibitor, partial curve, poor fit]	–
O=S(=O)(NCCCN1CCOCC1)c1ccc(Cl)s1	inconclusive: 89.1 µM [inhibitor, partial curve, poor fit]	–
COc1ccc(C(=O)c2coc3c2C(=O)C(=O)c2ccccc2-3)cc1	inconclusive: 35.5 µM [inhibitor, partial curve, poor fit]	–
Cc1ccc(-c2nnc(-c3ccc4ccccc4c3)o2)cc1	inconclusive: 17.8 µM [inhibitor, partial curve]	–
Oc1[nH]c2ccc(Br)cc2c1N=Nc1ccc(C(F)(F)F)cn1	inconclusive: 89.1 µM [inhibitor, single point]	–
CCCCCCc1cc2cc(C(=O)Nc3ccc(OC)cc3)c(=O)oc2cc1O	inconclusive: 2.51 µM [inhibitor, full curve]	–
O=C(C=Cc1cccs1)c1ccccc1	inconclusive: 22.4 µM [inhibitor, partial curve, poor fit]	–
O=C(Nc1cc(C(=O)Nc2ccc(S(=O)(=O)O)cc2S(=O)(=O)O)cc(C(=O)Nc2ccc(S(=O)(=O)O)cc2S(=O)(=O)O)c1)Nc1cc(C(=O)Nc2ccc(S(=O)(=O)O)cc2S(=O)(=O)O)cc(C(=O)Nc2ccc(S(=O)(=O)O)cc2S(=O)(=O)O)c1	active: 0.1 µM	–
CCOC(=O)N1CCN(C(=O)c2c(O)c3cccc4c3n(c2=O)CC4)CC1	–	inactive: -13.8%
COc1ccc(-n2nc(C#N)c(Cl)cc2=O)cc1	inconclusive: 79.4 µM [inhibitor, partial curve]	–
Cc1ccccc1Cn1c2ccccc2c2cnn(CC(=O)NCCCc3ccccc3)c(=O)c21	–	inactive: -9.83%

Structure (SMILES)	Potency	activity change, negative = inhibition
Cc1ccc(CCNc2nc3c(S(=O)(=O)c4ccccc4)nnn3c3ccsc23)cc1	–	inactive: 2.4%
COC(=O)c1ccccc1N=Nc1c(C)[nH][nH]c1=O	inconclusive: 89.1 µM [inhibitor, partial curve, poor fit]	–
CC(C)C(NC(=O)c1ccc(C(C)(C)C)cc1)C(=O)NCC1(N(C)C)CCCCC1 (stereo not drawn)	inconclusive: 89.1 µM [inhibitor, partial curve, poor fit]	–
COc1ccc(C(=O)COC(=O)CCN=C2NS(=O)(=O)c3ccccc32)c(OC)c1	inconclusive: 25.1 µM [inhibitor, partial curve, poor fit]	–
CC(C)(Sc1ccc(CCN(CCCCC2CCCCC2)C(=O)NC2CCCCC2)cc1)C(=O)O	active: 89.1 µM	–
COc1ccc(-c2cn3c(n2)sc2cc(C(=O)NCCCN4CCCCC4)ccc23)cc1	inconclusive: 56.2 µM [inhibitor, partial curve, poor fit]	–
CCN(C(=O)CSc1nnc(-c2cc3occc3n2C)n1-c1ccccc1C)c1cccc(C)c1	–	inactive: -16.7%
O=C(Cn1ncc(Cl)c(Cl)c1=O)c1ccc2c(c1)OCCO2	inconclusive: 31.6 µM [inhibitor, partial curve, poor fit]	–
Cc1csc2nc(CSc3ccc(Cl)cc3)cn12	inconclusive: 39.8 µM [inhibitor, partial curve, poor fit]	–
Cc1nn(-c2ccccc2)c(C)c1/C=C1\C(=O)N(C)C(=S)N1C	–	inactive: -11.5%
CC1=C(/C=C/C(C)=C/C=C/C(C)=C\C(=O)O)C(C)(C)CCC1	inconclusive: 35.5 µM [inhibitor, partial curve]	–
CCc1ccc(NS(=O)(=O)c2ccc3[nH]cc(C(=O)NCc4ccc(C)cc4)c(=O)c3c2)cc1	inconclusive: 100 µM [inhibitor, single point]	–
CCCCCCCCC(=O)c1c(OC)oc(C=O)cc1=O	active: 22.4 µM	–
O=C(O)c1ccc(-n2cccc2)cc1O	inconclusive: 39.8 µM [inhibitor, partial curve, poor fit]	–
COc1ccc(Cl)cc1Nc1ccc2cc(S(=O)(=O)N3CCCCC3)ccc2n1	–	inactive: -17.5%
CCOC(=O)N1CCN(S(=O)(=O)c2ccc(C(=O)N(CCCN(C)C)c3nc4c(C)c(C)ccc4s3)cc2)CC1	inconclusive: 112 µM [inhibitor, partial curve, poor fit]	–
O=C(Cn1cc(C(=O)c2ccco2)c2ccccc21)Nc1ccccc1	inactive	–
CCOc1cc(C2C(C#N)=C(N)OC(C)=C2C(C)=O)cc(Br)c1O (stereo not drawn)	inconclusive: 89.1 µM [inhibitor, single point]	–
O=C(N/N=C1\C(=O)c2cccc3cccc1c23)c1ccc(O)cc1	inconclusive: 89.1 µM [inhibitor, partial curve, poor fit]	–
O/N=C1\CC2(Cc3nonc31)OCCO2	inconclusive: 28.2 µM [inhibitor, single point]	–
COc1ccc(-n2c(C)c3c(OC)cccc(=O)c3c2C)cc1	inconclusive: 25.1 µM [inhibitor, partial curve, poor fit]	–

Structure (SMILES)	Potency	activity change, negative = inhibition
CC(C)(C)C1CCc2c(sc(NC(=O)c3noc4c3CCCC4)c2C#N)C1 (stereo not drawn)	–	inactive: -1.67%
CC1CCCN(C(=O)COc2ccc(NC(=O)c3cccs3)cc2)C1 (stereo not drawn)	inconclusive: 70.8 µM [inhibitor, partial curve, poor fit]	–
CCOc1ccccc1C(=O)Nc1c[nH]c(=O)[nH]c1=O	inconclusive: 79.4 µM [inhibitor, partial curve, poor fit]	–
CCC(C)(C)n1nnnc1CN1CCC(NC(=O)c2ccc(Br)cc2)CC1	inconclusive: 89.1 µM [inhibitor, partial curve, poor fit]	–
O=C1c2ccccc2C(=O)N1Cc1nc2ccccc2c(=O)n1Cc1ccco1	inconclusive: 6.31 µM [inhibitor, full curve, poor fit]	–
Cc1ccc(-c2nnn3c2nc(NC2CCC(C)CC2)c2ccccc23)cc1 (stereo not drawn)	inconclusive: 56.2 µM [inhibitor, partial curve, poor fit]	–
O=C(CSc1ncc(-c2ccccc2)[nH]1)Nc1cccc(Br)c1	inconclusive: 89.1 µM [inhibitor, partial curve, poor fit]	–
O=C(CSc1nnc2ccccn12)Nc1ccccc1Cl	–	inactive: -7.18%
CN1CCN(c2ccc(NC(=O)c3ccc(-c4ccc(Br)cc4)o3)cc2)CC1	–	inactive: -9.26%
NS(=O)(=O)c1ccc(N=Nc2c(O)[nH]c3ccc(Br)cc23)cc1	inconclusive: 56.2 µM [inhibitor, partial curve, poor fit]	–
S=C(NCc1ccco1)NCc1ccco1	inconclusive: 15.8 µM [inhibitor, full curve, poor fit]	–
C#Cc1ccc([C@H]2C=C(C(=O)O)O[C@@H](OCc3ccc(CO)cc3)C2)cc1	active: 35.5 µM	–
COc1ccc(C(=O)COC(=O)c2ccccc2NS(=O)(=O)c2ccc(O)c([N+](=O)[O-])c2)cc1	inconclusive: 89.1 µM [inhibitor, single point]	–
CCCc1cc(=O)[nH]c(SCC)n1	–	inactive: -3.21%
Cc1ccnc(NS(=O)(=O)c2ccc(NC(=O)CSc3nc(-c4ccccc4)cc(=O)[nH]3)cc2)n1	inconclusive: 31.6 µM [inhibitor, full curve]	–
C/C(=C\c1ccc(C(=O)O)cc1)c1ccc2c(c1)C(C)(C)CCC2(C)C	inconclusive: 35.5 µM [inhibitor, single point]	–
C/C(=N\NC(N)=S)C1=CCC2C3CC[C@H]4CC(O)CC[C@]4(C)C3CC[C@]12C (stereo partly drawn)	inconclusive: 39.8 µM [inhibitor, partial curve]	–
OCC1OC(n2cnc3c(NCCc4ccccc4)ncnc32)C(O)C1O (stereo not drawn)	–	inactive: -15.5%
O=C(N/N=C/c1cc(Cl)cc([N+](=O)[O-])c1O)c1cc(-c2ccccn2)nc2ccccc12	active: 79.4 µM	–
CCSC1=NSC2=NC(=O)/C(=C\c3coc4ccccc4c3=O)C(=N)N12	active: 20 µM	–
COc1ccccc1C(=O)OCc1cc(=O)n2nc(C3CCCCC3)sc2n1	inconclusive: 100 µM [inhibitor, single point]	–
